Measurements taken from PubChem BioAssay AID588342 (National Center for Advancing Translational Sciences (NCATS), 2011).
Out of some 360,000 compounds screened, about 25,000 (6.9%) were called active. Inconclusive means that the source gave no clear call. Such entries were picked first, then a sample of the others. Calls follow the shape of the dose curve; as a rule, active = well fitted inhibition curve with a large enough effect; inconclusive = small, poorly fitted or top-dose-only effect; inactive = flat fitted curve, though single readings scatter. Potencies of inconclusive entries are doubtful fits and often do not repeat.

target: Luciferin 4-monooxygenase (Photinus pyralis) (UniProt P08659); assay: qHTS profiling assay for firefly luciferase inhibitor/activator using purifed enzyme and Km concentrations of substrates (counterscreen for miR-21 project); settings: purified FLuc, luminescence inhibition; series mostly up to 57.5 µM; also: nearly all actives have a fitted effect of over 55% in size
Summary of the method: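 Purified P. pyralis luciferase, 10 nM final, with Km-level 10 uM D-luciferin and 10 uM ATP in 50 mM Tris acetate pH 7.5, 10 mM Mg acetate, 0.01% Tween-20, 0.05% BSA; 6-point qHTS titration about 60 µM downward; luminescence read.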
Potency is read from the fitted curve at half-maximal effect; tags tell the direction and shape of the fitted curve.

Chain of UniProt P08659 (P08659 whole entry, looked up): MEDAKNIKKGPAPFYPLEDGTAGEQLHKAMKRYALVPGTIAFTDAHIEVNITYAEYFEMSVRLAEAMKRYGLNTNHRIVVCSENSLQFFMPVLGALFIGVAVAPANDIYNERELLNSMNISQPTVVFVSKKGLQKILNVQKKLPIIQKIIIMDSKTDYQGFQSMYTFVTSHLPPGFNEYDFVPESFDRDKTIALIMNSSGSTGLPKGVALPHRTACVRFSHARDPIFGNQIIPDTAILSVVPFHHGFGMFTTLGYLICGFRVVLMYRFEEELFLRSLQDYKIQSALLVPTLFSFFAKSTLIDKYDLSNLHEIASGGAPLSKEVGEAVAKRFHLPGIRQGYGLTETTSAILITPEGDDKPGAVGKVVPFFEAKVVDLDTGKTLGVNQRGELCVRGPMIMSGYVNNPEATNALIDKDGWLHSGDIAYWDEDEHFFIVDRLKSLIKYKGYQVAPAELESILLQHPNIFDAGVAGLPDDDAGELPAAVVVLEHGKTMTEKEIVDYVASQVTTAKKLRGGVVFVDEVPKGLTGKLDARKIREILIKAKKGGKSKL

Compound | Potency
CCN(CC)C(=O)CCCc1c[nH]c2ccccc12 | inconclusive: 37.9 µM [inhibitor, partial curve, poor fit]
Cc1ccc(NC(=O)CN(C)C(=O)COC(=O)c2nccnc2N)cc1 | inactive
COc1ccccc1Nc1nc(-c2cccc([N+](=O)[O-])c2)cs1 | inconclusive: 23.9 µM [inhibitor, single point]
CNC(=O)C1(C)C=CCN1C(=O)c1ccccc1 (centres undefined) | inactive
O=C(Nc1cccnc1)c1ccc(COc2cc(Cl)ccc2Cl)o1 | inconclusive: 23.9 µM [inhibitor, partial curve]
COC(=O)c1cc(NC(=O)C2COc3ccccc3O2)cc(C(=O)OC)c1 (centres undefined) | inconclusive: 23.9 µM [inhibitor, partial curve, poor fit]
Cc1cc(=O)n2[nH]c(-c3ccc(F)cc3)nc2n1 | active: 12 µM
O=C(Cc1ccccc1)N/N=C/c1cc(Br)c(Br)o1 | inconclusive: 26.9 µM [inhibitor, partial curve, poor fit]
O=C(N/N=C/c1ccc(OC(=O)c2ccccc2Cl)cc1)c1ccccn1 | active: 1.51 µM
O=[N+]([O-])/C=C/c1cc2ccccc2[nH]1 | inactive
O=c1c2c(-c3ccccc3)csc2ncn1/N=C/c1cccc([N+](=O)[O-])c1O | inconclusive: 37.9 µM [inhibitor, single point]
CCOC(=O)/C(N=Nc1ccc2c(c1)OCO2)=C(\C)O | active: 13.5 µM
c1ccc(CN(Cc2ccccc2)c2nn[nH]n2)cc1 | inconclusive: 26.9 µM [inhibitor, partial curve, poor fit]
O=C(CN1C(=O)NC2(CCCC2)C1=O)OCC(=O)c1cccc(Cl)c1 | inactive
O=C(CSc1n[nH]c(-c2ccccc2Cl)n1)NCCc1ccccc1 | inactive
CCOc1cc(CNS(=O)(=O)c2ccc3c(c2)C(C)(C)C(=O)N3)cc(OCC)c1OCC | inactive
Oc1c(CN2CCCC(C(F)(F)F)C2)cc(Cl)c2ccccc12 (centres undefined) | inactive
O=C(CN1CCc2ccccc2C1)c1cccs1 | inconclusive: 37.9 µM [inhibitor, partial curve, poor fit]
Cc1ccc(OC(=O)COc2ccccc2C)cc1 | inconclusive: 15.1 µM [inhibitor, partial curve, poor fit]
O=C(NCc1ccco1)c1cc(-c2cccc(Cl)c2)on1 | inactive
COc1ccc(C)cc1NC(=O)Nc1nnc(N2CCCCC2)s1 | inactive
CC(C)(C)c1ccc(C2CC2C(=O)N/N=C\c2ccc[nH]2)cc1 (centres undefined) | active: 16.9 µM
S=C(NCCc1ccccc1)Nc1ccccn1 | inconclusive: 8.49 µM [inhibitor, partial curve]
COC(=O)CN1C(=O)[C@H]2[C@@H](c3ccc(C)o3)N3C(=O)CN(Cc4ccc(-c5ccccc5)cc4)C(=O)[C@@]3(C)[C@H]2C1=O | inconclusive: 21.3 µM [inhibitor, partial curve, poor fit]
COc1ccc(Nc2ncnc3sc4c(c23)CCCC4)cc1 | inconclusive: 37.9 µM [inhibitor, partial curve, poor fit]
Cn1nnnc1SCCCNCc1ccccc1OCc1ccc(Cl)cc1 | inactive
NS(=O)(=O)c1cc2c(cc1Cl)NC(CSCc1ccccc1)=NS2(=O)=O | inconclusive: 19 µM [inhibitor, partial curve]

Compound | Potency
Cc1csc(NC(=O)c2cccn2C)n1 | active: 8.49 µM
CCC(=O)c1ccc(OC(=O)C2CCN(C3=NS(=O)(=O)c4ccccc43)CC2)cc1 | inactive
O=C(/C=C\NCC(=O)c1ccccc1)c1ccc2ccccc2c1 | active: 26.9 µM
COc1ccccc1-n1cnnc1SC(C)C(=O)Nc1ccc(NC(C)=O)cc1 (centres undefined) | inactive
Clc1ccc(-n2ncc3c(NC4CCCC4)ncnc32)cc1 | active: 0.849 µM
CCN(CC)C(=O)c1ccc2c(c1)N(Cc1ccc(C(F)(F)F)cc1)C(=O)c1ccccc1S2 | inconclusive: 37.9 µM [inhibitor, partial curve, poor fit]
Cc1nn2c(=O)cc(COC(=O)c3cccc(NC(=O)COc4ccccc4C)c3)nc2s1 | active: 23.9 µM
COCc1ccc(C(=O)N2CCCC(C(=O)c3ccc(SC)cc3)C2)o1 (centres undefined) | inactive
COc1cccc(CNC(=O)CSC2=Nc3ccccc3N=C(c3ccc(F)cc3)C2)c1 | inactive
CCc1ccc(NC(=O)c2nc(S(=O)(=O)Cc3ccccc3)ncc2Cl)cc1 | inconclusive: 16.9 µM [inhibitor, partial curve]
Cc1c(C(=O)N2CCC(C)CC2)c(S(=O)(=O)N(Cc2ccccc2)C(C)(C)C)c(C)n1C | inactive
O=C(COC(=O)CCS(=O)(=O)c1ccccc1)Nc1ccc(N2CCCCC2)cc1 | inconclusive: 12 µM [inhibitor, partial curve]
Cc1ccc(C(=O)Nc2ccc3c(c2)nc2n3CCSC2)cc1 | active: 2.69 µM
O=C(CC1CCCCC1)Nc1nc2ccccc2s1 | inconclusive: 3.79 µM [inhibitor, full curve, poor fit]
Cc1nnc(SCc2ccccc2)[nH]c1=O | inconclusive: 23.9 µM [inhibitor, single point]
C(=N\N=C\c1ccccc1)/c1ccccc1 | active: 0.953 µM
COc1ccc(/C=C/C(=O)c2ccc(C(=O)/C=C/c3ccc(OC)c(OC)c3)cc2)cc1OC | inactive
Cc1ccc(C(=O)Oc2csc(=S)n2C(=O)c2ccc(C)cc2)cc1 | inconclusive: 7.57 µM [inhibitor, partial curve]
COc1ccc(C(=O)Nc2ccc(S(=O)(=O)Nc3cnc4ccccc4n3)cc2)cc1 | inconclusive: 37.9 µM [inhibitor, single point]
COc1cccc(/C=C/C(=O)NCc2cn3cc(Cl)ccc3n2)c1 | inconclusive: 37.9 µM [inhibitor, partial curve, poor fit]
COc1ccc(CNC(=O)CN2C(=O)CC(c3ccc(C)c(C)c3)=Nc3ccccc32)cc1 | inconclusive: 12 µM [inhibitor, partial curve]
COc1ccc(C(=O)Nc2cccc(-c3cc4ccccc4oc3=O)c2)cc1[N+](=O)[O-] | inactive
CC(C)C(=O)Nc1ccc(NC(=O)c2cccc(F)c2)cn1 | inconclusive: 23.9 µM [inhibitor, single point]
O=C(O)CCC(=O)Nc1cccc(-c2nc3ccccc3o2)c1 | active: 10.7 µM
O=C(COC(=O)Cn1nnc2ccccc21)NC1CCCC1 | inactive
Cc1ccc(-n2ncc3c(NC4CCCCCC4)ncnc32)cc1 | active: 0.953 µM
CC(=O)c1c(C)[nH]c(C(=O)Nc2cccc(C(F)(F)F)c2)c1C | inconclusive: 21.3 µM [inhibitor, partial curve, poor fit]

Compound | Potency
Cc1c(-c2ccccc2)n[nH]c1C(=O)NN | inconclusive: 37.9 µM [inhibitor, partial curve, poor fit]
COc1ccc(C(=O)NCCn2cc(SCc3c(F)cccc3Cl)c3ccccc32)cc1 | inactive
COc1ccc(-c2csc(NC3=NCCCCC3)n2)cc1 | active: 12 µM
CN(C)c1ccc(S(=O)(=O)NCC(=O)OCC(=O)NC(=O)C2CCCCC2)cc1[N+](=O)[O-] | inactive
CCOC(=O)C1(Cc2ccccc2Cl)CCN(C(=O)c2cnccn2)CC1 | active: 15.1 µM
CCN(CC)c1ccc(/C=N/NC(=O)c2ccc3c(c2)OCCO3)cc1 | active: 7.57 µM
CCN1CCN(C(=S)NCCc2ccccc2)CC1 | inconclusive: 30.1 µM [inhibitor, partial curve, poor fit]
CCN(CC)S(=O)(=O)c1cc(NC(=O)C(C)N2CCN(c3ccccn3)CC2)ccc1C (centres undefined) | inactive
Clc1nc(-c2cccnc2)nc2scc(-c3ccccc3)c12 | active: 12 µM
CCOC(=O)c1cccc(NC(=O)c2ccc3c(c2)OCO3)c1 | active: 8.49 µM
CN(C)S(=O)(=O)c1cccc(NC(=O)COC(=O)CCc2nc3ccccc3s2)c1 | inconclusive: 37.9 µM [inhibitor, single point]
COc1ccc(C(CNC(=O)C2COc3ccccc3O2)N2CCCC2)cc1 (centres undefined) | inactive
Cc1cccc(NC(=O)COn2nnc3ccc(S(C)(=O)=O)cc32)c1 | inactive
CCN(CC)C(=O)c1c(NC(=O)c2cccc(C)c2)sc2c1CCC(C)C2 (centres undefined) | active: 16.9 µM
O=[N+]([O-])c1ccc2nc(-c3ccc(Cl)cc3)n(OCc3ccccc3)c2c1 | active: 12 µM
CC(C)(C)NC(=O)C1CCN(c2nc3ccccc3nc2C(F)(F)F)CC1 | inactive
CC(C)(C)c1ccc(OC(=O)c2ccc3snnc3c2)cc1 | inconclusive: 10.7 µM [inhibitor, partial curve]
CCS(=O)(=O)Nc1ccc(C2=NN(C(=O)c3ccco3)C(c3ccco3)C2)cc1 (centres undefined) | inconclusive: 21.3 µM [inhibitor, single point]
O=C(Cc1ccccc1)N/N=C/c1cc2c(cc1Cl)OCO2 | inconclusive: 10.7 µM [inhibitor, partial curve]
O=C(CSc1nnc(-c2ccncc2)n1CCc1ccccc1)NCc1ccccc1 | inconclusive: 8.49 µM [inhibitor, single point]
O=C(NCCc1ccccc1)c1cnc2ccccc2n1 | active: 8.49 µM
COCCN=C1Sc2nc3cc(C)c(C)cc3cc2CN1Cc1cccs1 | inactive
O=C(CS(=O)(=O)c1ccc(Cl)cc1)NCc1ccccc1 | inactive
O=[N+]([O-])c1cccc(-c2nc(-c3ccccc3)no2)c1 | active: 1.35 µM
CC(C)c1ccc(C(=O)NNC(=O)c2ccncc2)cc1 | inconclusive: 26.9 µM [inhibitor, single point]
